Kd data for one molecule are collected here from publication PMC4635315 (2015).

The target of one test is BARTL1 (CCDC104/CFAP36) (Homo sapiens, UniProt Q96G28). Description: fluorescence polarization. In general terms: Polarisation of emitted light reports the rotation of a fluorescent probe.
Test [1] deals with BARTL1 (CCDC104/CFAP36) 1-133 (Homo sapiens, UniProt Q96G28). Briefly: fluorescence polarization.

Sequence of BARTL1 (CCDC104/CFAP36) (Q96G28 whole entry): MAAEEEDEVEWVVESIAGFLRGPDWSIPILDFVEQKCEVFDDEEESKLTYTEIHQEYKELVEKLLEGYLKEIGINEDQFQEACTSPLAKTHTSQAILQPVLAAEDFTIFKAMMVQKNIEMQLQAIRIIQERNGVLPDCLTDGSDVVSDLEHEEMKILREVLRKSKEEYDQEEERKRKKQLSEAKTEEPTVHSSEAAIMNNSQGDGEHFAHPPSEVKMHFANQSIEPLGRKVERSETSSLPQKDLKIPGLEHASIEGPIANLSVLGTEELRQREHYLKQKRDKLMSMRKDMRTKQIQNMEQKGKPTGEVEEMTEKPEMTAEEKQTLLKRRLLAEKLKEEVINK

B1: Arl3 (protein)
chain: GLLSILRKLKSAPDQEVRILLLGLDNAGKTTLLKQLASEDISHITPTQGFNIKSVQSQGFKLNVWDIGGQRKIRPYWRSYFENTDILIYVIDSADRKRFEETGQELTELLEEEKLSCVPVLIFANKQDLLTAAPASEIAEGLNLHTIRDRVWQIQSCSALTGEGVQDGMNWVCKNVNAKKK
modifications: mant-GppNHp-bound Arl3
For orientation: Kd means the concentration at which binding is half-saturated. A low value points to tighter binding. Take B1: the Kd in the test with BARTL1 (CCDC104/CFAP36) worked out at 1000 nM; in test [1], 430 nM.
